Assay in all cases: CLSI broth microdilution.
For orientation: In broth dilution the organism is exposed to a series of concentrations in liquid medium.

Compound in one experiment: CC[C@@H]([C@H](C)O)n1ncn(-c2ccc(N3CCN(c4ccc(OC[C@@H]5CO[C@@](Cn6cncn6)(c6ccc(F)cc6F)C5)cc4)CC3)cc2)c1=O [posaconazole]
Compound in the next experiment: CC[C@H](C)C[C@H](C)CCCCCCCCC(=O)N[C@H]1C[C@@H](O)[C@@H](NCCN)NC(=O)[C@@H]2[C@@H](O)CCN2C(=O)[C@H]([C@H](O)CCN)NC(=O)[C@H]([C@H](O)[C@@H](O)c2ccc(O)cc2)NC(=O)[C@@H]2C[C@@H](O)CN2C(=O)[C@H]([C@@H](C)O)NC1=O [caspofungin]
Compound in another experiment: OC(Cn1cncn1)(Cn1cncn1)c1ccc(F)cc1F [fluconazole]
Compound in another experiment: C[C@@H]1[C@H](O)[C@@H](C)/C=C/C=C/C=C/C=C/C=C/C=C/C=C/[C@H](O[C@@H]2O[C@H](C)[C@@H](O)[C@H](N)[C@@H]2O)C[C@@H]2O[C@](O)(C[C@@H](O)C[C@@H](O)[C@H](O)CC[C@@H](O)C[C@@H](O)CC(=O)O[C@H]1C)C[C@H](O)[C@H]2C(=O)O [amphotericin B]
Compound in another experiment: CCC(C)n1ncn(-c2ccc(N3CCN(c4ccc(OCC5COC(Cn6cncn6)(c6ccc(Cl)cc6Cl)O5)cc4)CC3)cc2)c1=O [itraconazole]
Compound in a further experiment: C[C@@H](c1ncncc1F)[C@](O)(Cn1cncn1)c1ccc(F)cc1F [voriconazole]
Compound in another experiment: Nc1[nH]c(=O)ncc1F [flucytosine]
Compound in another experiment: CCCCCOc1ccc(-c2cc(-c3ccc(C(=O)N[C@H]4C[C@@H](O)[C@@H](O)NC(=O)[C@@H]5[C@@H](O)[C@@H](C)CN5C(=O)[C@H]([C@H](O)CC(N)=O)NC(=O)[C@H]([C@H](O)[C@@H](O)c5ccc(O)c(OS(=O)(=O)O)c5)NC(=O)[C@@H]5C[C@@H](O)CN5C(=O)[C@H]([C@@H](C)O)NC4=O)cc3)no2)cc1 [micafungin]
Compound in another experiment: CCCCCOc1ccc(-c2ccc(-c3ccc(C(=O)N[C@H]4C[C@@H](O)[C@@H](O)NC(=O)[C@@H]5[C@@H](O)[C@@H](C)CN5C(=O)[C@H]([C@@H](C)O)NC(=O)[C@H]([C@H](O)[C@@H](O)c5ccc(O)cc5)NC(=O)[C@@H]5C[C@@H](O)CN5C(=O)[C@H]([C@@H](C)O)NC4=O)cc3)cc2)cc1 [anidulafungin]

MIC of clinical C. albicans isolates, CLSI broth microdilution (ranges and time not stated); higher = less susceptible. Call: susceptible or wild type [S] / resistant or non-wild type [R] by CLSI breakpoints or epidemiological cut-offs; intermediate and dose-dependent carry no call here (the paper groups them with resistant). '<=' and '>=' mark each drug's lowest and highest value, inferred; the source prints them plain. Isolates are numbered anew. Where only a bound is given, the exact number is not on record here.

On to “Candida albicans isolate 344 (Erg11p: K342R,E266D, Fur1p: WT, Tac1p: I558V,A377V,F189S,N174D,M170I,K87N)”, for which the MIC (as a rule, the smallest concentration in the dilution series that meets the test's criterion for growth inhibition) with posaconazole is 0.015 mg/L [S]; with caspofungin, 0.03 mg/L [S]; with fluconazole it was 0.25 mg/L [S]; with amphotericin B, 0.25 mg/L [S]; with itraconazole, 0.03 mg/L [S]; with voriconazole it was no more than 0.008 mg/L [S]. Also, the MIC with flucytosine was no more than 0.06 mg/L [S]; in the experiment with micafungin it was 0.015 mg/L [S]; with anidulafungin it was 0.06 mg/L [S].
Regarding “Candida albicans isolate 345 (Erg11p: WT, Fur1p: WT, Tac1p: I558V,A377V,F189S,N174D,M170I,K87N)”, the MIC with posaconazole was 0.03 mg/L [S]; with caspofungin, 0.03 mg/L [S]; in the experiment with fluconazole it was 0.25 mg/L [S]; with amphotericin B it was 0.5 mg/L [S]; with itraconazole it was 0.03 mg/L [S]; with voriconazole, no more than 0.008 mg/L [S]. In addition, the results for the MIC with flucytosine, with micafungin and with anidulafungin were no more than 0.06 mg/L [S], 0.015 mg/L [S] and no more than 0.015 mg/L [S], respectively.
Take “Candida albicans isolate 346 (Erg11p: V488I,E266D, Fur1p: WT, Tac1p: N896S,A377V,F189S,N174D,M170I,K87N)”: the minimal inhibitory concentration (MIC) was 0.015 mg/L [S] with posaconazole; 0.03 mg/L [S] in the experiment with caspofungin; 0.25 mg/L [S] with fluconazole; 0.5 mg/L [S] with amphotericin B; 0.03 mg/L [S] in the experiment with itraconazole; no more than 0.008 mg/L [S] with voriconazole. Further, the MIC with flucytosine is no more than 0.06 mg/L [S]; with micafungin, 0.015 mg/L [S]; with anidulafungin, 0.06 mg/L [S].
With “Candida albicans isolate 347 (Erg11p: Y257H,A114S, Fur1p: R101C, Tac1p: A736V)”, the MIC with posaconazole turned out to be 0.25 mg/L [R]; with caspofungin it was 0.03 mg/L [S]; in the experiment with fluconazole, 16 mg/L [R]; with amphotericin B, 0.5 mg/L [S]; in the experiment with itraconazole it was 0.25 mg/L [R]; with voriconazole, 0.25 µg/mL. In addition, the MIC with flucytosine was 0.25 mg/L [S]; with micafungin it was 0.015 mg/L [S]; in the experiment with anidulafungin it was no more than 0.015 mg/L [S].
As to “Candida albicans isolate 348 (Erg11p: WT, Fur1p: WT, Tac1p: N896S)”, the MIC is 0.015 mg/L [S] with posaconazole; 0.03 mg/L [S] with caspofungin; 0.25 mg/L [S] with fluconazole; 0.5 mg/L [S] with amphotericin B; 0.03 mg/L [S] with itraconazole; no more than 0.008 mg/L [S] with voriconazole. Further, the minimum inhibitory concentration (MIC) with flucytosine was no more than 0.06 mg/L [S]; with micafungin it was no more than 0.008 mg/L [S]; with anidulafungin it was no more than 0.015 mg/L [S].
On to “Candida albicans isolate 349 (Erg11p: E266D, Fur1p: WT, Tac1p: I558V,A377V,F189S,N174D,M170I,K87N)”, for which the MIC with posaconazole is 0.03 mg/L [S]; with caspofungin, 0.03 mg/L [S]; with fluconazole, 0.5 mg/L [S]; with amphotericin B, 1 mg/L [S]; with itraconazole it was 0.06 mg/L [S]; with voriconazole, no more than 0.008 mg/L [S]. Moreover, the MIC in the experiment with flucytosine is no more than 0.06 mg/L [S]; in the experiment with micafungin it was no more than 0.008 mg/L [S]; with anidulafungin, 0.06 mg/L [S].
With “Candida albicans isolate 350 (Erg11p: WT, Fur1p: WT, Tac1p: I558V,A377V,F189S,N174D,M170I,K87N)”, the MIC with posaconazole came out at 0.03 mg/L [S]; in the experiment with caspofungin, 0.06 mg/L [S]; with fluconazole, 1 mg/L [S]; with amphotericin B, 1 mg/L [S]; in the experiment with itraconazole, 0.06 mg/L [S]; in the experiment with voriconazole, 0.015 mg/L [S]. Besides, the MIC in the experiment with flucytosine was no more than 0.06 mg/L [S]; in the experiment with micafungin, no more than 0.008 mg/L [S]; with anidulafungin, no more than 0.015 mg/L [S].
Turning to “Candida albicans isolate 351 (Erg11p: E266D, Fur1p: WT, Tac1p: C908Y,A377V,N174D,M170I,I109N,K87N)”, the minimum inhibitory concentration (MIC) in the experiment with posaconazole is no less than 8 mg/L [R]; with caspofungin, 0.25 mg/L [S]; with fluconazole, no less than 256 mg/L [R]; with amphotericin B, 1 mg/L [S]; with itraconazole, no less than 16 mg/L [R]; with voriconazole, no less than 8 mg/L [R]. The MIC with flucytosine was determined as 0.25 mg/L [S]; with micafungin it was 0.06 mg/L [S]; in the experiment with anidulafungin, 0.25 mg/L [S].
Regarding “Candida albicans isolate 352 (Erg11p: V488I,E266D, Fur1p: WT, Tac1p: N896S,M170V,S108N)”, the minimal inhibitory concentration (MIC) with posaconazole was 0.015 mg/L [S]; with caspofungin, 0.015 mg/L [S]; in the experiment with fluconazole, 0.5 mg/L [S]; with amphotericin B, 0.5 mg/L [S]; with itraconazole it was no more than 0.015 mg/L [S]; with voriconazole, no more than 0.008 mg/L [S]. Also, the MIC in the experiment with flucytosine was no more than 0.06 mg/L [S]; with micafungin, 0.015 mg/L [S]; with anidulafungin, no more than 0.015 mg/L [S].
Regarding “Candida albicans isolate 353 (Erg11p: E266D, Fur1p: WT, Tac1p: T885K,I558V,A430V,A377V,F189S,N174D,M170I,M170V,K87N)”, the MIC in the experiment with posaconazole is 0.015 mg/L [S]; in the experiment with caspofungin, 0.03 mg/L [S]; in the experiment with fluconazole, 0.25 mg/L [S]; with amphotericin B, 0.5 mg/L [S]; with itraconazole, 0.03 mg/L [S]; in the experiment with voriconazole, no more than 0.008 mg/L [S]. The MIC is no more than 0.06 mg/L [S] with flucytosine, no more than 0.008 mg/L [S] with micafungin and no more than 0.015 mg/L [S] in the experiment with anidulafungin.
Take “Candida albicans isolate 354 (Erg11p: WT, Fur1p: WT, Tac1p: I558V,A377V,F189S,N174D,M170I,K87N)”: the MIC was 0.015 mg/L [S] in the experiment with posaconazole; 0.03 mg/L [S] in the experiment with caspofungin; 0.25 mg/L [S] in the experiment with fluconazole; 0.25 mg/L [S] in the experiment with amphotericin B; no more than 0.015 mg/L [S] in the experiment with itraconazole; no more than 0.008 mg/L [S] with voriconazole. The figures for the MIC with flucytosine, with micafungin and in the experiment with anidulafungin were no more than 0.06 mg/L [S], 0.015 mg/L [S] and 0.03 mg/L [S], respectively.
On to “Candida albicans isolate 355 (Erg11p: V488I,E266D, Fur1p: WT, Tac1p: N896S,M170V,S108N)”, for which the MIC in the experiment with posaconazole was 0.03 mg/L [S]; with caspofungin, 0.06 mg/L [S]; with fluconazole, 0.5 mg/L [S]; with amphotericin B, 0.5 mg/L [S]; with itraconazole it was 0.06 mg/L [S]; with voriconazole it was no more than 0.008 mg/L [S]. The minimal inhibitory concentration (MIC) in the experiment with flucytosine was no more than 0.06 mg/L [S]; with micafungin it was 0.015 mg/L [S]; with anidulafungin, 0.06 mg/L [S].
“Candida albicans isolate 356 (Erg11p: D153E, Fur1p: WT, Tac1p: N896S)”: the MIC with posaconazole is 0.015 mg/L [S]; in the experiment with caspofungin, 0.03 mg/L [S]; in the experiment with fluconazole, 0.25 mg/L [S]; with amphotericin B, 0.25 mg/L [S]; in the experiment with itraconazole it was 0.03 mg/L [S]; with voriconazole it was no more than 0.008 mg/L [S]. Also, the MIC in the experiment with flucytosine was no more than 0.06 mg/L [S]; with micafungin, 0.015 mg/L [S]; in the experiment with anidulafungin, 0.03 mg/L [S].

Source of the values: the supplement of paper PMC9927326.
